The supplement of paper PMC3334620
The full ranking holds about 33,000 sequences; the median of “E-score (-0.5 to 0.5)” is about -0.041, and the highest 2% start at about 0.37. Some of the results follow.

Target: T1, Ecm22 (UniProt Q05958)
T1 sequence: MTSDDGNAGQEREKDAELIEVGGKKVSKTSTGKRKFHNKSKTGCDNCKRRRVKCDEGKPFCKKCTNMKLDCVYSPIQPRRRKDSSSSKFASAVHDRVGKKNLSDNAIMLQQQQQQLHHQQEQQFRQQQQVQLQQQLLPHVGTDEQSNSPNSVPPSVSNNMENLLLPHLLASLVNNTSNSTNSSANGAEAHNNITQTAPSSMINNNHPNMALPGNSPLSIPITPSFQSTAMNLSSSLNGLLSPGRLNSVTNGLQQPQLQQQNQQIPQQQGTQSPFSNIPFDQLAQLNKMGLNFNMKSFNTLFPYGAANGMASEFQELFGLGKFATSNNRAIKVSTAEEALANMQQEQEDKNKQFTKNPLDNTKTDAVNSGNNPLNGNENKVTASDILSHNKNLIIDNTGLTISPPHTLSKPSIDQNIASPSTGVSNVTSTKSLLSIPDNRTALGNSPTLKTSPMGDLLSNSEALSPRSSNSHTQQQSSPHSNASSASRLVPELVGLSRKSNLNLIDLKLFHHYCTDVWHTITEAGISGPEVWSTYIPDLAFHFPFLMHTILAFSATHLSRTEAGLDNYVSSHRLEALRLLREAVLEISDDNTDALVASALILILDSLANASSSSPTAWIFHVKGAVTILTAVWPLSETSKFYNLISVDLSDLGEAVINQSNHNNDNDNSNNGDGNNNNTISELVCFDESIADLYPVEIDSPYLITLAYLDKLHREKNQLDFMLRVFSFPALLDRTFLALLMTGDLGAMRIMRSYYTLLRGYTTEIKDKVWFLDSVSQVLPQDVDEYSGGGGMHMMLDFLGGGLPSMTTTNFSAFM
Experiment: PBM E-score (8-mer binding enrichment) (E-score (-0.5 to 0.5)); higher = stronger / more preferred TF binding; most listed sequences are background and not binding sites
Settings: protein concentration: 200 nM; construct: GST-full length
Summary of the method: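 Bound GST-tagged yeast transcription factors, applied at about 100-200 nM to double-stranded universal all-10-mer Agilent arrays, were detected with fluorescent anti-GST. Scans were normalised with masliner. A modified Wilcoxon-Mann-Whitney statistic, the E-score, was assigned to each ungapped eight-base word pooled with its reverse complement by the Universal PBM Analysis Suite.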

Row | Sequence | PBM E-score
1 | AAACGCGA | 0.313
2 | ACTTATAG | 0.0935
3 | AAGCGAGT | 0.357
4 | ATTAAAAG | 0.0211
5 | ATAAAGAC | -0.162
6 | GGATTACA | -0.196
7 | ACACACAC | 0.0472
8 | CGAGAATA | 0.189
9 | TGAGAACA | -0.17
10 | GAAGGGGC | -0.261
11 | CGAAGTAC | 0.264
12 | CATCGGCA | -0.0638
13 | CATCTTGG | -0.214
14 | AGTGATAT | 0.201
15 | CAACGAAG | 0.277
16 | CTACCAAG | -0.23
17 | AAGGCCAG | -0.265
18 | AGCGTACT | 0.103
19 | ATATGTTG | -0.0404
20 | AGGGCGGG | -0.0524
21 | AGACCAAT | -0.0553
22 | GCAGTACA | -0.132
23 | TACTTGAA | 0.0126
24 | ATGGACAG | -0.208
25 | GTGAAGAA | 0.0883

Row | Sequence | PBM E-score
26 | ATATCTCC | 0.0559
27 | AGGTGCAA | -0.169
28 | GTCGAGAA | 0.0318
29 | GGAAATCA | -0.0787
30 | CCCCAAAG | -0.25
31 | ACAGATGG | -0.325
32 | ATGGTCGA | -0.0698
33 | AGGATGAC | -0.183
34 | ACACGTGT | 0.104
35 | CCGCCAGC | -0.163
36 | GGAAGAGA | -0.178
37 | GAACGTCA | -0.229
38 | CGGTATTA | 0.134
39 | ATTTCATG | -0.207
40 | GATATGGC | -0.285
41 | AGACAGAA | -0.0147
42 | CTGTTGGA | -0.176
43 | CGAAATGA | 0.141
44 | CAGAAGGC | -0.161
45 | CCGGGAGG | -0.132
46 | ATTGAGTA | 0.0297
47 | GGAGACTA | -0.0834
48 | CTCCCTAC | -0.135
49 | GGGCGCAC | -0.206
50 | CGGATAAC | 0.151

Row | Sequence | PBM E-score
51 | GAACCGAC | 0.316
52 | CAGTATCC | -0.00158
53 | ATAAAATG | 0.0169
54 | ACTCTGGC | -0.252
55 | AATATTAC | 0.174
56 | CGTGGTCA | -0.0996
57 | AAGGACCA | -0.121
58 | ATATCGCA | 0.00652
59 | AGCGGGAT | 0.0859
60 | TAAGGGGA | -0.243
61 | ACCCCCAC | -0.385
62 | ATAACAAT | -0.0971
63 | ATCATCGG | -0.0581
64 | GCGCGTTA | 0.0959
65 | AGCGTCAA | -0.193
66 | AGAGTCAT | -0.277
67 | ATTGACGC | -0.224
68 | ACTTCGAA | 0.177
69 | CATCAGAA | -0.0919
70 | GAAACCCC | -0.204
71 | AGGGCTGC | -0.243
72 | ATTTCGGA | 0.179
73 | GTGTGTCA | -0.0374
74 | GGGTTTGA | -0.0819
75 | GGACACGA | 0.178

Row | Sequence | PBM E-score
76 | AACTAGGC | -0.152
77 | CGCTTCCG | 0.205
78 | AGTTCCCG | 0.0677
79 | AGCAAGAA | -0.0831
80 | CAGTCCTA | -0.252
81 | GAGTTGAC | 0.0175
82 | GAGCCAAC | -0.15
83 | CAGCGATG | -0.175
84 | ACCGGACT | -0.0404
85 | AGCTTAAG | -0.104
86 | CTTTGCTC | -0.0468
87 | AAAGAGCC | -0.146
88 | ATGGCCTG | -0.305
89 | TAGCTGAA | 0.0371
90 | GTCTGCAC | -0.269
91 | ACGGTCCA | 0.016
92 | CCCCGCTC | -0.0291
93 | CGATCAAC | 0.169
94 | GCTATATA | 0.0637
95 | TACACTAA | -0.113
96 | ACCGCCCC | 0.0878
97 | ACATCACG | 0.0575
98 | ATGAGATG | -0.227
99 | ATTCTGCC | -0.105
100 | AATAGAAG | 0.0168

Row | Sequence | PBM E-score
101 | CAGAGACC | -0.143
102 | AAGTTCTG | -0.088
103 | TAGCAGGA | -0.208
104 | GGGCGAAA | 0.0574
105 | AACCTCGG | 0.168
106 | GGTTAGAC | -0.0792
107 | CTTAGAAA | -0.201
108 | CTGGATAC | 0.112
109 | CTGCTCGC | 0.0949
110 | CGCGCGGA | 0.0841
111 | CTCGCCTC | -0.0125
112 | GGAATGCA | -0.11
113 | AGTTAGAT | -0.239
114 | AGAGACTG | -0.171
115 | ATCACCGC | 0.0231
116 | ACTCGCCA | 0.0346
117 | ACCGAGCA | 0.252
118 | GTTTATCA | 0.089
119 | ACGCGTTA | 0.0663
120 | ACGAGTTG | 0.371
121 | ATTTATTC | 0.0382
122 | GGTACATA | 0.0186
123 | GATCGATA | 0.102
124 | CCACAGAA | 0.0544
125 | GAAAACGC | 0.0151

Row | Sequence | PBM E-score
126 | ATTGGGTA | -0.132
127 | AACACGAT | 0.0697
128 | AATCGCAC | 0.0387
129 | CTCATAGC | -0.0777
130 | ACTTGCCA | -0.239
131 | GAATTTTA | -0.0314
132 | AGGGGGAT | -0.154
133 | ATGTGAGG | -0.129
134 | ACTAGAAC | 0.0361
135 | ACAATAAC | -0.134
136 | CCGGCGAC | -0.141
137 | AGGGTTCC | -0.186
138 | GCAACTCA | -0.0943
139 | CCGCATCC | -0.112
140 | TAGCCTGA | -0.178
141 | CTACCCAG | -0.0541
142 | CTGAAGCA | -0.2
143 | ACAAAAGG | 0.032
144 | ATTATAGA | -0.0038
145 | CACTTAGG | -0.058
146 | CGGTTACG | 0.276
147 | CAGGGGAG | -0.241
148 | CTCTTCGC | -0.0036
149 | GGCCCTTA | -0.168
150 | ACGTAATA | 0.165

Row | Sequence | PBM E-score
151 | AAAATAAC | -0.104
152 | AGCACACG | -0.0915
153 | CACGTGAA | 0.123
154 | TATGGAAA | 0.0524
155 | CGCCGAAA | 0.0707
156 | CGGACATC | 0.0732
157 | GGTCAAGA | -0.309
158 | AGTGGATC | 0.0138
159 | ATATGGCG | 0.0329
160 | CGCGGACC | -0.00804
161 | CCTACTAG | -0.0757
162 | CAGGATCA | -0.201
163 | CAGGGTAA | -0.255
164 | CGGGATCA | 0.0955
165 | AAGTACGT | 0.171
166 | ATCGCTTG | 0.122
167 | AGCCCAAT | -0.108
168 | ACTTTTCA | -0.171
169 | CCACTGGG | -0.325
170 | CCTTTGTA | -0.18
171 | AGGCAATC | -0.162
172 | ACGAATGC | 0.305
173 | GTCGGCAC | -0.0966
174 | ACGATCAT | 0.282
175 | CAGACAGA | -0.126

Row | Sequence | PBM E-score
176 | CATCCCAA | -0.227
177 | GCCGAGAC | -0.0241
178 | ACTTTCAG | -0.2
179 | GCACTCCA | -0.183
180 | CACTCCGC | -0.0252
181 | CATATCTC | -0.123
182 | CTCGATGC | -0.122
183 | GGCTACTA | -0.0795
184 | CCAAAGTC | -0.208
185 | GGCTGGAA | -0.239
186 | ATGTGTCC | -0.14
187 | CGTTTTGC | 0.106
188 | AACTAAGT | -0.0136
189 | CCTTCACG | -0.0503
190 | CCCTGCAG | -0.136
191 | CGTGAGAG | -0.292
192 | GGCCAAGA | -0.209
193 | CAAAAACC | -0.057
194 | GCATTACA | -0.137
195 | CTCGCACA | 0.274
196 | GCTGGGGA | -0.211
197 | CTGACAGC | -0.0914
198 | GGGTTAGA | -0.266
199 | GATAGGAC | -0.261
200 | ACATCACT | 0.0638

Row | Sequence | PBM E-score
201 | CATCAACG | -0.0401
202 | CAGCAATC | -0.119
203 | ACGACATG | 0.339
204 | TGGTACCA | -0.0735
205 | CTATTCAC | -0.0921
206 | AAAACCCG | 0.091
207 | AAGAGTGT | -0.187
208 | CAAGAAGA | -0.106
209 | CACGAACC | 0.0995
210 | AACATGAT | -0.0615
211 | TAATCCTA | 0.00777
212 | AAGCGATC | 0.161
213 | AAACACAC | 0.114
214 | ACCTACAT | -0.0722
215 | ACGGTACT | 0.0921
216 | GGATAGAC | -0.0159
217 | GGGGCTAC | -0.0133
218 | CGCAAGAG | -0.11
219 | CCTGTTAG | 0.0832
